Data taken from the supplement of paper PMC3334620.
Over roughly 33,000 sequences, “E-score (-0.5 to 0.5)” has its median near -0.035; the highest 2% begin near 0.34. This is one part of the list.

What follows are sequences tested against T1, Mot3 (UniProt P54785) (assay: PBM E-score (8-mer binding enrichment) (E-score (-0.5 to 0.5)); higher = stronger / more preferred TF binding; most listed sequences are background and not binding sites). Details: protein concentration: 200 nM; construct: GST-full length.
T1 sequence: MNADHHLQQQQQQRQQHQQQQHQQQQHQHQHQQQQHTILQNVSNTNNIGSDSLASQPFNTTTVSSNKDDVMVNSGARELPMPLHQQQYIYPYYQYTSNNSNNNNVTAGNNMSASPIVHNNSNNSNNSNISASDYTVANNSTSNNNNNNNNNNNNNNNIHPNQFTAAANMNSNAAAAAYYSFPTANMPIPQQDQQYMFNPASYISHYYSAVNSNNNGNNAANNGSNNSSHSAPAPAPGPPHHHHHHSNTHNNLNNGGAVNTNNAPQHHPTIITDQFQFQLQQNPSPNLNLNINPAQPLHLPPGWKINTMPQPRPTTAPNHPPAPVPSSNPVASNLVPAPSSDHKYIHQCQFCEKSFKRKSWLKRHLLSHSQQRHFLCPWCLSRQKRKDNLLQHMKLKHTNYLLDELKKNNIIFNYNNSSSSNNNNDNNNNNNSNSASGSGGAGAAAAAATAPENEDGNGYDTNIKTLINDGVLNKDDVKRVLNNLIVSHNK
Procedure, shortened: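 Each ungapped eight-base word and its reverse complement, pooled, received an E-score from the Universal PBM Analysis Suite. Underlying scans, normalised with masliner, recorded fluorescent anti-GST bound to GST-tagged yeast transcription factors. These were applied at about 100-200 nM to universal all-10-mer Agilent arrays double-stranded by primer extension.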

Sequence	PBM E-score
CTTAATGC	-0.137
CGGTATAG	-0.202
CATCCTTC	0.0917
TACGCCCA	-0.0439
GGTACAAC	0.0803
CTCTGCGC	-0.0498
AGTATTGC	0.111
AGGACGGG	-0.187
TAGCGTAA	0.185
CTAGCCTA	-0.184
CGCCCTTC	-0.218
CCTGACGA	0.191
ATTAGATA	0.0716
AGCCTCCA	-0.369
CAACCAAC	0.0394
TTCGGAAA	-0.185
CCAGGCAC	0.487
CCCTCTCG	-0.33
GAATTTCA	-0.0752
CTCATTGC	-0.0374
AGTGCCGA	-0.324
GAGATAGC	-0.227
GAACTTCA	-0.0947
GGTGTCAA	0.0373
CGCCTCAC	0.0846

Sequence	PBM E-score
GCTAAAAC	0.0951
CCCGCTAG	-0.192
CAGAGTTC	-0.124
ATTGAACC	0.108
CAAATGCG	-0.0866
AATATCCC	-0.178
ATTAGGGC	-0.0941
AACGCTGT	0.109
AACGTCAG	-0.144
CATCGTTC	0.0809
AGCCGCAC	-0.216
GGGTTCGA	-0.0674
ACATCTAC	0.26
GGGTCAAC	-0.162
TGAGGGCA	-0.0148
GAAGGAAA	0.454
TCCTACCA	-0.108
ATTCCTTG	0.0459
GCAGTTAA	-0.0564
ACGCATCG	-0.0642
ACCACATA	0.153
CATACGTA	0.228
GTGATCTA	-0.0534
TCAATTAA	0.16
ACTCTTGA	-0.0504

Sequence	PBM E-score
GGGCATAA	-0.204
GAACGTAC	0.143
ATAACTCA	0.13
CTCTTTAA	-0.0131
GGAGCGAC	-0.267
CGTTGGGC	-0.00826
GAACTCTA	0.0582
GCTCCCCC	-0.288
CCAAAAAA	0.118
AGGCTGAT	-0.165
CGGCATAC	-0.141
AGGCTTAC	0.00056
AAAAACGT	0.0784
ATTACACG	0.435
AACAAATA	0.119
AAGTTGTG	0.089
CACACGAC	0.0741
TAAACGCA	0.203
AGATGAAT	0.15
AGGGTAAG	-0.0833
GCTAGGTA	-0.0278
CCGGACTA	-0.219
TCCCACGA	-0.194
GTTAGAAC	0.0517
AGCTCGGG	-0.267

Sequence	PBM E-score
ATTACGTA	0.354
GAGTAAAC	0.158
AGTACCAG	-0.106
ACCTCTGC	-0.247
GGACGTGA	-0.213
AGTCTGTG	0.00931
AATGCTTC	-0.0775
GCGATGTA	0.245
AATCAGTA	0.185
AAGCTGCG	0.0174
CGGGCATA	-0.286
CGTTTGGA	-0.232
CTTTGGCC	0.0624
TAACCGGA	0.0658
CACTACAC	0.305
GTGGTTCA	-0.0314
ACCTTGAT	0.00535
TGATGTAA	0.281
AATGAGAC	-0.0839
TCAACCAA	0.0249
ACCGCCCA	-0.0736
AAGAGACA	0.0354
AACAGGGC	0.0406
GCGTCTCA	-0.0998
GCGAACAA	0.00895

Sequence	PBM E-score
CCGGGGTA	-0.212
CCAGGGGG	-0.259
AATGTGGG	-0.125
ACTGGCCC	-0.252
AACCAAAG	0.034
CCACGGCC	-0.233
CTCAAATC	-0.0697
CTTTTTTA	0.0642
CAACATAG	0.221
CAAACCTA	0.0865
AGCATTCC	-0.159
ACTGTGAG	0.0262
GCTTACCA	-0.0458
CTATCACA	0.073
TGATATCA	-0.108
ATTATGCG	0.0432
ATAGGATC	-0.108
TTACCGAA	0.0463
ACCTACTA	0.122
CAGCGAGA	-0.219
CCACGTAC	0.0592
ATGAGCAC	-0.0928
ACGTGAAG	0.04
CGGGGAAG	-0.278
AGCTATAA	-0.0249

Sequence	PBM E-score
ATTCTGGC	-0.101
AAAGAAAC	0.165
GATCCAGC	-0.228
AAAAATCC	0.144
CCATGATC	-0.251
ACCTGGCG	0.0197
TCAGTGAA	-0.124
ATCCACCC	-0.246
GCTAGGGA	-0.136
CAACTGCC	-0.187
GGCCTAAC	0.0201
CTAAAGAC	0.0438
ATCGTTCA	0.00043
AGATATAA	0.0221
CTTTTTCA	0.115
CCAAGACC	-0.252
CCCTAAGA	-0.172
ACTGATTG	-0.0873
AGGGAACG	-0.054
AACCTATT	0.0398
GAAGCTTC	-0.191
AAAAATGC	0.0116
GGTTAGCA	-0.126
GAATTCAA	-0.105
CCGAGGTA	-0.143

Sequence	PBM E-score
GGCATCCA	-0.0625
CAAAGTCA	0.00206
AGATGCAC	-0.249
CTATTCGA	-0.0163
CTTGCCGC	-0.231
CAGCACTA	-0.113
AGTATTCC	-0.0202
GCTCCGAA	-0.139
ACACTGAT	-0.138
GTGTTTGA	0.246
AAGTATTG	0.0601
GGAGCCGA	-0.26
CCCAGTTC	0.0538
TGTCCACA	0.1
TATTTGCA	0.216
GTGGAGCA	-0.196
AGCCTTAA	0.158
AGGAGATC	-0.148
AACAAGTG	0.112
AAGGGTAC	0.111
AAGCATTG	-0.0699
GAACGGAC	-0.135
